“And” between values parts separate entries of the source, which are not always exact repeats. Identical values can stand only once. In all, about 220,000 compounds went through this assay and about 2,300 (1%) were called active. Inconclusive results, whose numbers are uncertain, are shown with a selection of clear calls. Calls follow the shape of the dose curve; as a rule, active = well fitted inhibition curve with a large enough effect; inconclusive = small, poorly fitted or top-dose-only effect, or effect the other way; inactive = no such curve, though single readings can be large or run the other way. Potencies of inconclusive entries are doubtful fits and often do not repeat.
What follows are molecules tested against Neuropeptide S receptor (Homo sapiens) (UniProt Q6W5P4) (assay: qHTS Assay for Antagonists of the Neuropeptide S Receptor: cAMP Signal Transduction). Conditions: CHO-NPSR cells, cAMP TR-FRET, antagonist mode; activity change, negative = inhibition: at 38.3 µM (top of the series) unless noted.
% is scaled to controls: 0 for no effect and ±100 for the full control effect; potency is read from the fitted curve at half-maximal effect; tags tell the direction and shape of the fitted curve.
Also: nearly all actives have a fitted effect of over 50% in size.

UniProt Q6W5P4, sequence (Q6W5P4 whole entry, looked up): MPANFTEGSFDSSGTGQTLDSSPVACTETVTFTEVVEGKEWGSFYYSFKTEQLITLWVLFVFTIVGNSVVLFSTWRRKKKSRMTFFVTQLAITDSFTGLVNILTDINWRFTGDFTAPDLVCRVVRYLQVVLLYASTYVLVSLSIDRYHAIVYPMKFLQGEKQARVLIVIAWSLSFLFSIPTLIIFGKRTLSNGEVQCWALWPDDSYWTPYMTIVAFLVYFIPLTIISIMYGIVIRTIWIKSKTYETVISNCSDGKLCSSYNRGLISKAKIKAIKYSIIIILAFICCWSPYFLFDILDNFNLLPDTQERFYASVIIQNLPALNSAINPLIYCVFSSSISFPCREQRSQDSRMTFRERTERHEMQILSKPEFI

Question: How did the “activity change, negative = inhibition” value turn out when `COc1ccccc1-n1cnnc1SCC(=O)Nc1cc(C)on1` was run?
Answer: inactive: 11.1%

Question: How did the Potency turn out when `CCc1ccc(NC(=O)CSc2nc3ccccc3c(=O)n2CCCN2CCC(C)CC2)cc1` was run?
Answer: inconclusive: 12.6 µM [inhibitor, single point]

Question: For `CCOC(=O)c1sc(NC(=O)C(C)Sc2nnc(N)s2)nc1C` (stereo not drawn), which “activity change, negative = inhibition” value is on record?
Answer: inactive: -8.25%

Question: For `Cc1cc(C)n(-c2nnc(N3CCN(c4ccc(F)cc4)CC3)nn2)n1`, which “activity change, negative = inhibition” value is on record?
Answer: inactive: -17.7%

Question: For `CN1CCN(CCCN2c3ccccc3Sc3ccc(C(F)(F)F)cc32)CC1`, which Potency is on record?
Answer: inconclusive: 25.1 µM [inhibitor, single point] and inconclusive: 12.6 µM [inhibitor, single point]

Question: With `O=C(CN1CCN(c2ncc(C(F)(F)F)cc2Cl)CC1)NCCNc1ncc(C(F)(F)F)cc1Cl` as the molecule, how does the Potency read?
Answer: inconclusive: 12.6 µM [inhibitor, single point]

Question: `O=C(CN1CCCC1)Nc1ccc(Br)cc1` was tested. Which “activity change, negative = inhibition” value did it give?
Answer: inactive: 15.4%

Question: How did the Potency turn out when `N#C/C(=C/c1ccc(Br)o1)C(N)=S` was run?
Answer: inconclusive: 25.1 µM [inhibitor, single point]

Question: How did the “activity change, negative = inhibition” value turn out when `Cc1ccc(Nc2ccc(C(=O)NC3CCCCC3)cn2)cc1` was run?
Answer: inactive: -7.44%

Question: `COc1ccc([N+](=O)[O-])cc1NCc1ccccc1C` was tested. Which Potency did it give?
Answer: inconclusive: 10 µM [inhibitor, partial curve]

Question: With `CCOC(=O)c1ccc(NS(=O)(=O)c2ccc3c(c2)CCCN3C(C)=O)cc1` as the molecule, how does the Potency read?
Answer: inconclusive: 0.01 µM [inhibitor, full curve, poor fit]

Question: For `CCCOC(=O)c1cccc(Nc2nc(-c3cccnc3)nc3ccccc23)c1`, which Potency is on record?
Answer: inconclusive: 25.1 µM [inhibitor, single point]

Question: `CCCn1c(SCC(=O)c2ccc3c(c2)OCCO3)nc2c1c(=O)n(C)c(=O)n2C` was tested. Which Potency did it give?
Answer: inconclusive: 12.6 µM [inhibitor, single point]

Question: `COc1ccc(Cl)cc1NC(=S)NCCc1ccc(S(N)(=O)=O)cc1` was tested. Which “activity change, negative = inhibition” value did it give?
Answer: inactive: 20.3%

Question: Which Potency does the source give for `COC(=O)Nc1nc2ccc(C(=O)c3cccs3)cc2[nH]1` here?
Answer: inconclusive: 1 µM [activator, full curve]

Question: How did the Potency turn out when `CCO[C@@H]1OC(C(=O)NCc2ccccc2)=C[C@H](c2csc3ccccc23)[C@H]1CCCO` was run?
Answer: inconclusive: 10 µM [activator, partial curve]

Question: With `CC(C)N(C(=O)CSc1nc2ccccc2n1Cc1ccccc1F)C(C)C` as the molecule, how does the Potency read?
Answer: inconclusive: 12.6 µM [inhibitor, single point]

Question: `O=C(c1noc2c1CCCC2)N1CCc2c([nH]c3ccccc23)C1c1ccccn1` (stereo not drawn) was tested. Which Potency did it give?
Answer: inconclusive: 12.6 µM [activator, single point]

Question: With `COc1ccc(-c2nc(SCc3ccccc3)n(S(C)(=O)=O)n2)cc1` as the molecule, how does the Potency read?
Answer: inconclusive: 12.6 µM [inhibitor, partial curve]

Question: With `COc1ccccc1N1CCN(C(=O)c2cc3c(s2)CCC3)CC1` as the molecule, how does the Potency read?
Answer: inconclusive: 0.501 µM [inhibitor, single point]

Question: With `COCCNC(=O)c1c(N)n(-c2cccc(C)c2)c2nc3ccccc3nc12` as the molecule, how does the Potency read?
Answer: inconclusive: 25.1 µM [inhibitor, single point]

Question: For `COc1ccccc1NC(=O)COc1ccc(/C=N/NS(=O)(=O)c2ccc(C)cc2)cc1`, which Potency is on record?
Answer: inconclusive: 10 µM [inhibitor, single point]

Question: Which Potency does the source give for `c1ccc(COn2nnc3ccccc32)c(COn2nnc3ccccc32)c1` here?
Answer: inconclusive: 10 µM [inhibitor, partial curve, poor fit]

Question: `CCC(=O)NC(c1ccc(OC)c(OC)c1)c1cc(Cl)c2cccnc2c1O` (stereo not drawn) was tested. Which “activity change, negative = inhibition” value did it give?
Answer: inactive: -4.74%

Question: How did the “activity change, negative = inhibition” value turn out when `COc1ccc(CN2C(=O)CS(=O)CC2=O)cc1OC` was run?
Answer: inactive: 1.87% [at 46.1 µM]

Question: `O=C(CC1C(=O)NCCN1Cc1ccc(F)c(F)c1)NCCCn1ccnc1` (stereo not drawn) was tested. Which “activity change, negative = inhibition” value did it give?
Answer: inactive: -16.2%

Question: With `c1ccc2c(c1)OCC(c1nn3c(Cn4nnc5ccccc54)nnc3s1)O2` (stereo not drawn) as the molecule, how does the Potency read?
Answer: inconclusive: 31.6 µM [inhibitor, single point]

Question: How did the “activity change, negative = inhibition” value turn out when `Cc1ccccc1NN1C(=O)C=CC1=O` was run?
Answer: inactive: -3.31% [at 46.1 µM]

Question: For `COc1ccc([N+](=O)[O-])cc1N(CC(O)Cn1nnc2ccccc21)S(=O)(=O)c1ccc(C)cc1` (stereo not drawn), which Potency is on record?
Answer: inconclusive: 15.8 µM [inhibitor, single point]

Question: Which “activity change, negative = inhibition” value does the source give for `CCN1CNC(=S)N(c2ccccc2OC)C1` here?
Answer: inactive: 5% [at 46.1 µM]

Question: How did the “activity change, negative = inhibition” value turn out when `COc1ccc(Cc2n[nH]c(=S)n2Cc2ccccc2)cc1Cl` was run?
Answer: inactive: -33.3%

Question: How did the Potency turn out when `CCCC(=O)O[C@@H]1C[C@@H](C)N(C(=O)c2ccccc2)c2ccc(C)cc21` was run?
Answer: inconclusive: 10 µM [inhibitor, single point]

Question: For `Cc1c(C(=O)OC/C(O)=C(\C#N)c2nc3ccccc3[nH]2)oc2ccc(Br)cc12`, which Potency is on record?
Answer: inconclusive: 25.1 µM [inhibitor, single point]

Question: `Cc1nc2ccccc2n1C1CCN(CC(=O)Nc2ccccc2Br)CC1` was tested. Which Potency did it give?
Answer: inconclusive: 12.6 µM [activator, partial curve]

Question: How did the Potency turn out when `O=C1/C(=C/c2cccs2)N=C(c2cccs2)N1Nc1ccccc1` was run?
Answer: inconclusive: 10 µM [inhibitor, single point]

Question: How did the Potency turn out when `CCOC(=O)C1=NN(c2cccc(C)c2)C2(S1)SC(C(C)=O)=C(C)N2c1ccccc1` (stereo not drawn) was run?
Answer: inconclusive: 12.6 µM [inhibitor, single point]

Question: With `CC1CCN(c2nc3c(c(=O)[nH]c(=O)n3C)n2Cc2ccccc2)CC1` as the molecule, how does the Potency read?
Answer: inconclusive: 0.199 µM [inhibitor, full curve, poor fit]

Question: Which “activity change, negative = inhibition” value does the source give for `Cc1cc(C(=O)N/N=C/C=C/c2ccccc2[N+](=O)[O-])c(C)o1` here?
Answer: inactive: -15.4%

Question: For `Cc1ccc(-n2c(O)c(/C=N/Nc3ccc(S(=O)(=O)N4CCOCC4)cc3[N+](=O)[O-])c3ccccc3c2=O)c(C)c1`, which Potency is on record?
Answer: inconclusive: 10 µM [inhibitor, single point]

Question: With `O=C(c1ccco1)N1CCN(C(=O)N2c3ccccc3Sc3ccccc32)CC1` as the molecule, how does the Potency read?
Answer: inconclusive: 2.51 µM [activator, full curve, poor fit]

Question: `Cc1c2c(nc3ccccc13)CCC(C(C)(C)C)C2` (stereo not drawn) was tested. Which Potency did it give?
Answer: inconclusive: 12.6 µM [inhibitor, single point]

Question: How did the Potency turn out when `S=C1N(c2ccccc2)C(c2ccc(Br)cc2)N2CCCN12` (stereo not drawn) was run?
Answer: inconclusive: 12.6 µM [activator, partial curve]

Question: How did the Potency turn out when `COc1ccc(-c2c3c(=O)n(C)c(=O)n(C)c3cn2-c2cc(OC)ccc2OC)cc1` was run?
Answer: inconclusive: 15.8 µM [inhibitor, single point]

— PubChem BioAssay AID1461 (National Center for Advancing Translational Sciences (NCATS), 2008)
